Laboratory results reported in publication PMC6602295, “Structural mechanism for guanylate-binding proteins (GBPs) targeting by the Shigella E3 ligase IpaH9.8” (PLoS Pathogens, 2019).
No constants are given. Whether binding was seen depends on the method and setting. In cells and extracts the contact can be indirect. Some binding calls cover weakened binding; strength is not graded here. For some assays here: Tags and fused reporters may be left off the sequences shown.

Columns and labels:
[1] = target: T1, Flag tagged GBP4 (human) (UniProt Q96PP9); assay: co-IP; Flag tagged GBPs co-expressed with 6xMyc tagged IpaH9.8-C337A or its mutants in HEK293T; GBPs immunoprecipitated with Flag-M2 beads, eluted with 3x Flag peptide, associated IpaH detected by immunoblotting; lysis buffer 25 mM Tris-HCl pH 8.0, 2 mM MgCl2, 1 mM GTP, 0.5% Triton X-100
T1 sequence: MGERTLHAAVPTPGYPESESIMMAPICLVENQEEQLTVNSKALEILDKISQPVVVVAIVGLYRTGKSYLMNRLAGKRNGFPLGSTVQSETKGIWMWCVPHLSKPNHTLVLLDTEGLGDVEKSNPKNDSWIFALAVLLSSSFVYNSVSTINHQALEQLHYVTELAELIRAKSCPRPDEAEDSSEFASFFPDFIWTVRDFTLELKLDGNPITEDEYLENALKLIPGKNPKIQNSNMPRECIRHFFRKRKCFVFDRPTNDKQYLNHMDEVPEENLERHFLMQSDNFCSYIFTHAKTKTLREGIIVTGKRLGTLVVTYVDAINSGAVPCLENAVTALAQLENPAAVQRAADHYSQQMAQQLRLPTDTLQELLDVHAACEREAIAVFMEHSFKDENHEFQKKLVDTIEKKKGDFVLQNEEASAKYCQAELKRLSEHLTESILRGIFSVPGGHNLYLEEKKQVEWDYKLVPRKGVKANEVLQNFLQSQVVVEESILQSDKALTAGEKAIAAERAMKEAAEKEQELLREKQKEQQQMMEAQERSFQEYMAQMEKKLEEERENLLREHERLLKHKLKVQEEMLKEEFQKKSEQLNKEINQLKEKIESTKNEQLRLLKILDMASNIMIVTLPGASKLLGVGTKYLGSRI

[2] = target: T2, Flag tagged GBP2 (human) (UniProt P32456); assay: as above
T2 sequence: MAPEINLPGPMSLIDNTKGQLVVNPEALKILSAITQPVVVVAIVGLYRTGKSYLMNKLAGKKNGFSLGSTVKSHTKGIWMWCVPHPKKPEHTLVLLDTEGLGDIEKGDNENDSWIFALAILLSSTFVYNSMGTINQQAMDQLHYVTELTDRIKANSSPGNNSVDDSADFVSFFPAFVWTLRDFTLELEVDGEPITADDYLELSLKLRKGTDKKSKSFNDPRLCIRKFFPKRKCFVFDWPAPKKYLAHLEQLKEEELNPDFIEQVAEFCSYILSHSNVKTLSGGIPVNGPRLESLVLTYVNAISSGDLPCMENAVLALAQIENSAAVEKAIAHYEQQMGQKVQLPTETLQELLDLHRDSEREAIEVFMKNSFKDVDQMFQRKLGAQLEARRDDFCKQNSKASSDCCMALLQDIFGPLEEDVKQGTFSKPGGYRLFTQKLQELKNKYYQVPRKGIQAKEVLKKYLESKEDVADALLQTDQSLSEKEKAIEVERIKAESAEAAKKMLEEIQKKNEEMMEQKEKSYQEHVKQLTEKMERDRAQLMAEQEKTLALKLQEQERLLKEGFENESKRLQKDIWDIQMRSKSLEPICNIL

[3] = target: T3, Flag tagged GBP1 (human) (UniProt P32455); assay: as above
T3 sequence: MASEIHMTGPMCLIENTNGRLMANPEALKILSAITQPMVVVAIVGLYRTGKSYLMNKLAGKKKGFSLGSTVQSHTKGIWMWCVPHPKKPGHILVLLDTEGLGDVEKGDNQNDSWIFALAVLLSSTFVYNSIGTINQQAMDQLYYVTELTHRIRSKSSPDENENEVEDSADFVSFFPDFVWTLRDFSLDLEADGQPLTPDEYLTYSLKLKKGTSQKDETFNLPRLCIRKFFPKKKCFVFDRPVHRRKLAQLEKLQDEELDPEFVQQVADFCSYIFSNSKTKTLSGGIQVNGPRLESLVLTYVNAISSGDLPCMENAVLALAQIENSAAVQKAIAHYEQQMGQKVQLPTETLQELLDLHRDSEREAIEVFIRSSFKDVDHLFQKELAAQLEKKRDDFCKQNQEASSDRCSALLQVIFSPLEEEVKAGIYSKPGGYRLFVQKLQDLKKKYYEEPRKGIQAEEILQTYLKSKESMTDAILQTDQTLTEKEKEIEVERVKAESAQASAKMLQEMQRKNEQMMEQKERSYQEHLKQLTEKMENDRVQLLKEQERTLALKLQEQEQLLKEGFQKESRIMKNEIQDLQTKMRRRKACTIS

[4] = target: T4, Flag tagged GBP6 (human) (UniProt Q6ZN66); assay: as above
T4 sequence: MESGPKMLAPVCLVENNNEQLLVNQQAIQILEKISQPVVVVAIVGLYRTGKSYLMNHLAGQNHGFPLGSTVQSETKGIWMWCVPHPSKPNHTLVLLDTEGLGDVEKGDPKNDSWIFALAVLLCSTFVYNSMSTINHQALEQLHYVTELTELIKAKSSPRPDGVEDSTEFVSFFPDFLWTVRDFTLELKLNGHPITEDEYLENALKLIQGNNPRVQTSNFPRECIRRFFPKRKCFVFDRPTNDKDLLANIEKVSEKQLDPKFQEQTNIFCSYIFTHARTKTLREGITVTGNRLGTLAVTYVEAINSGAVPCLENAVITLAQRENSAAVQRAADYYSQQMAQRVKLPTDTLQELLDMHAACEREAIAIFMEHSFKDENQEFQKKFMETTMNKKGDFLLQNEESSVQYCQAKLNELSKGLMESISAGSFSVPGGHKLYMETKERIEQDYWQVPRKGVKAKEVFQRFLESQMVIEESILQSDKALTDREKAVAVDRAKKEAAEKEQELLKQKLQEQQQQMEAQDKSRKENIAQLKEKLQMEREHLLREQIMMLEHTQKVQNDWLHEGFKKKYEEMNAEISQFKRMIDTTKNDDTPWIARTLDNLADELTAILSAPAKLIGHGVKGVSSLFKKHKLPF

[5] = target: T5, GBP3-M (GBP3 with Lys105 mutated to Glu) (human) (UniProt Q9H0R5); assay: co-IP; HA or Flag tagged GBPs co-expressed with Flag or Myc tagged IpaH9.8-C337A in HEK293T; immunoprecipitation with Flag-M2 beads from the lysates, associated proteins analysed by immunoblotting; lysis buffer with 2 mM MgCl2 and 1 mM GTP
T5 sequence: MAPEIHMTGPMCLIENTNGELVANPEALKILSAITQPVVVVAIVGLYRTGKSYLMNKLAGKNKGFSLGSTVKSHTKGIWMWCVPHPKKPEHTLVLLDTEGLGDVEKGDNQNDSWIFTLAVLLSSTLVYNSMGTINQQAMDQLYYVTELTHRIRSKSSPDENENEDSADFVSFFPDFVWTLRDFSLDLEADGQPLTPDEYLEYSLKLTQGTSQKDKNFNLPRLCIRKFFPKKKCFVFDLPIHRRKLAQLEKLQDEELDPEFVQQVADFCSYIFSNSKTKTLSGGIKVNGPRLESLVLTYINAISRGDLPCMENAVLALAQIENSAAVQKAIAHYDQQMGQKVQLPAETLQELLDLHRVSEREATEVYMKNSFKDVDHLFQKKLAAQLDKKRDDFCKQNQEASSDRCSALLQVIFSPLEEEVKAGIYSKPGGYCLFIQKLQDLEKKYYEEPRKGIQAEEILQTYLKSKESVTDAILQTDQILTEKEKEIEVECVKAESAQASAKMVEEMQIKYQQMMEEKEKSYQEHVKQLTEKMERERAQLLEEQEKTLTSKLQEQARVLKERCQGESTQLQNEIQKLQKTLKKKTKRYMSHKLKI

Substance | binding [1] | binding [2] | binding [3] | binding [4] | binding [5]
6xMyc tagged IpaH9.8-C337A (from UniProt Q8VSC3 1-545) (enzyme) | binds | binds | binds | binds | –
6xMyc tagged IpaH9.8-Y86A/Q88A/C337A (from UniProt Q8VSC3 1-545) (enzyme) | no binding | no binding | – | no binding | –
Flag or Myc tagged IpaH9.8-C337A (Fig 3b) (from UniProt Q8VSC3 1-545) (enzyme) | – | – | – | – | binds
